Source: the supplement of paper PMC10369915
Some of the results follow. Rule as the data show it: active = 3.2 or more and inactive = the rest. Most of these values are background signal.

Experiments:
Assay in all cases: enrichment score (SH2-bound / input frequency) (ratio); bacterial display of known human phosphotyrosine sites (pTyr-Var adds point mutants) read by sequencing; higher = stronger binding; tyrosines were phosphorylated by kinases first
Details in all cases: peptide library: Human pTyr
SHP2 C-SH2 domain E139D = target: SHP2 C-SH2 domain E139D
[1] = target: SHP2 C-SH2 domain wild-type
SHP2 N-SH2 domain L43F = target: SHP2 N-SH2 domain L43F
SHP2 N-SH2 domain T42A = target: SHP2 N-SH2 domain T42A
SHP2 N-SH2 domain T52S = target: SHP2 N-SH2 domain T52S
[2] = target: SHP2 N-SH2 domain wild-type

Measured: enrichment score
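Also: displayed peptides selected on beads carrying the immobilized SH2 domain, with library peptides lacking any tyrosine serving as negative controls.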

ERADLIAYLKKATNE [CYC_HUMAN_98]
inactive: SHP2 C-SH2 domain E139D 0.917 | [1] 0.842 | SHP2 N-SH2 domain L43F 0.721 | SHP2 N-SH2 domain T42A 0.681 | SHP2 N-SH2 domain T52S 0.899 | [2] 0.906

KMTTNPIYEHIGAAT [CHN2_HUMAN_153_YA]
inactive: SHP2 C-SH2 domain E139D 0.931 | [1] 0.866 | SHP2 N-SH2 domain L43F 1.13 | SHP2 N-SH2 domain T42A 0.984 | SHP2 N-SH2 domain T52S 0.899 | [2] 1.35

YNVSTTPYLQSVKKK [CKAP2_HUMAN_599]
inactive: SHP2 C-SH2 domain E139D 0.962 | [1] 0.962 | SHP2 N-SH2 domain L43F 0.824 | SHP2 N-SH2 domain T42A 0.972 | SHP2 N-SH2 domain T52S 0.876 | [2] 1.04

EPGEQPIYMNFSEPL [CLM7_HUMAN_188]
inactive: SHP2 C-SH2 domain E139D 0.85 | [1] 0.635 | SHP2 N-SH2 domain L43F 0.744 | SHP2 N-SH2 domain T42A 0.705 | SHP2 N-SH2 domain T52S 0.782 | [2] 0.76

DVNIRNTYNQTALDI [CSKI2_HUMAN_253]
inactive: SHP2 C-SH2 domain E139D 0.626 | [1] 0.529 | SHP2 N-SH2 domain L43F 0.583 | SHP2 N-SH2 domain T42A 0.557 | SHP2 N-SH2 domain T52S 0.589 | [2] 0.726

TPLTPSQYASGSKAE [CENPF_HUMAN_158_YA]
inactive: SHP2 C-SH2 domain E139D 0.762 | [1] 0.55 | SHP2 N-SH2 domain L43F 0.856 | SHP2 N-SH2 domain T42A 0.69 | SHP2 N-SH2 domain T52S 0.814 | [2] 0.879

TDQNSDGYCQTGTMS [DESP_HUMAN_56]
inactive: SHP2 C-SH2 domain E139D 0.78 | [1] 0.889 | SHP2 N-SH2 domain L43F 0.739 | SHP2 N-SH2 domain T42A 0.71 | SHP2 N-SH2 domain T52S 0.81 | [2] 0.482

GGGGMEDYTKIEKIG [CDK1_HUMAN_4]
inactive: SHP2 C-SH2 domain E139D 0.627 | [1] 0.632 | SHP2 N-SH2 domain L43F 0.944 | SHP2 N-SH2 domain T42A 0.55 | SHP2 N-SH2 domain T52S 0.798 | [2] 0.913

DWGLAEFYHPGQEYN [CSNK2A1_HUMAN_182]
inactive: SHP2 C-SH2 domain E139D 0.828 | [1] 0.648 | SHP2 N-SH2 domain L43F 0.689 | SHP2 N-SH2 domain T42A 0.689 | SHP2 N-SH2 domain T52S 0.617 | [2] 0.612

AEDFLKDYIHINIGA [DDX5_HUMAN_297]
active: SHP2 N-SH2 domain T52S 3.84
inactive: SHP2 C-SH2 domain E139D 2.56 | [1] 2.45 | SHP2 N-SH2 domain L43F 1.57 | SHP2 N-SH2 domain T42A 3.07 | [2] 1.82

IPEPAHAYAQPQTTT [CRKL_HUMAN_207]
inactive: SHP2 C-SH2 domain E139D 0.626 | [1] 0.687 | SHP2 N-SH2 domain L43F 0.702 | SHP2 N-SH2 domain T42A 0.647 | SHP2 N-SH2 domain T52S 0.68 | [2] 0.663

NIIFGVSYDEYRYRS [CFTR_HUMAN_512]
inactive: SHP2 C-SH2 domain E139D 1.33 | [1] 1.59 | SHP2 N-SH2 domain L43F 1.03 | SHP2 N-SH2 domain T42A 1.12 | SHP2 N-SH2 domain T52S 1.49 | [2] 1.95

EDEDDEDYVPAVPLR [DDX41_HUMAN_33_YA]
inactive: SHP2 C-SH2 domain E139D 0.914 | [1] 0.715 | SHP2 N-SH2 domain L43F 0.631 | SHP2 N-SH2 domain T42A 0.88 | SHP2 N-SH2 domain T52S 0.858 | [2] 0.837

DPEGGVDYKNIHLEK [CSF1R_HUMAN_699]
inactive: SHP2 C-SH2 domain E139D 1.14 | [1] 0.89 | SHP2 N-SH2 domain L43F 1.06 | SHP2 N-SH2 domain T42A 0.983 | SHP2 N-SH2 domain T52S 0.647 | [2] 0.8

KDLFQVIYNVKKKEE [DAB2_HUMAN_170]
active: [2] 3.22
inactive: SHP2 C-SH2 domain E139D 2.31 | [1] 2.21 | SHP2 N-SH2 domain L43F 2.29 | SHP2 N-SH2 domain T42A 2.38 | SHP2 N-SH2 domain T52S 2.45

KSLDGALYDDEDDDD [DEN1B_HUMAN_520]
inactive: SHP2 C-SH2 domain E139D 1.04 | [1] 0.967 | SHP2 N-SH2 domain L43F 0.695 | SHP2 N-SH2 domain T42A 0.987 | SHP2 N-SH2 domain T52S 1.05 | [2] 1.07

SEKKPSKYPLCSADA [DIDO1_HUMAN_1244]
inactive: SHP2 C-SH2 domain E139D 1.14 | [1] 0.884 | SHP2 N-SH2 domain L43F 0.806 | SHP2 N-SH2 domain T42A 0.988 | SHP2 N-SH2 domain T52S 0.939 | [2] 1.21

DIMNDSNYIVKGNAR [CSF1R_HUMAN_809]
inactive: SHP2 C-SH2 domain E139D 0.584 | [1] 0.548 | SHP2 N-SH2 domain L43F 0.654 | SHP2 N-SH2 domain T42A 0.71 | SHP2 N-SH2 domain T52S 0.658 | [2] 0.881
